Structures can show the parent of a compound that is named as a salt. The list shows a part of the results.
The compounds below were run on Schistosoma mansoni schistosomula (assay: phenotypic hit in primary schistosomula screen (any phenotype vs DMSO control) (binary (1 = hit, 0 = no phenotype)); higher = active (phenotype induced)). Settings: 1 µM; time (d): 7.

SMILES	phenotypic hit
COc1ccc2c(=O)c(CC(=O)O)coc2c1 [anhydrobrazilic acid]	inactive: 0
CNc1ccccc1C(=O)N1CCc2c([nH]c3ccccc23)C1=O [rhetsinine]	inactive: 0
Cc1cc(N)c2ccccc2[n+]1CCCCCCCCCC[n+]1c(C)cc(N)c2ccccc21 [dequalinium chloride]	inactive: 0
Nc1c2c(nc3ccccc13)CCCC2O (stereo not drawn) [hydroxytacrine maleate]	inactive: 0
COc1ccccc1OCC(O)COC(N)=O (stereo not drawn) [methocarbamol]	inactive: 0
NCCNC(=O)c1ccc(Cl)cc1 [Ro 16-6491 hydrochloride]	inactive: 0
COc1ccc2cc(C(C)C(=O)O)ccc2c1 (single isomer, unassigned; (+)) [(+)naproxen]	inactive: 0
CC1(C)CC2C1CCC1(C)OC2(C)CCC1O (stereo not drawn) [3,7-epoxycaryophyllan-6-ol]	inactive: 0
OCc1ccccc1O [salicyl alcohol]	inactive: 0
O=C(c1ccccc1)c1ccc2n1CCC2C(=O)O (stereo not drawn) [ketorolac tromethamine]	inactive: 0
N[C@@H](C(=O)O)[C@@H](O)[C@H](O)[C@H](O)CO [glucosaminic acid]	inactive: 0
COc1c(N2CCNC(C)C2)c(F)cc2c(=O)c(C(=O)O)cn(C3CC3)c12 (stereo not drawn) [gatifloxacin]	inactive: 0
CN1Cc2c(N)cccc2C(c2ccccc2)C1 (stereo not drawn) [Nomifensine maleate]	inactive: 0
C=CCSCC1Nc2cc(Cl)c(S(N)(=O)=O)cc2S(=O)(=O)N1 (stereo not drawn) [althiazide]	inactive: 0
Cc1cc(O)c2c(O)c3c(O)cccc3cc2c1 [chrysarobin]	inactive: 0
COc1ccc2oc3ccccc3c(=O)c2c1 [2-methoxyxanthone]	inactive: 0
NC(=O)c1cccc(N)c1 [3-aminobenzamide]	inactive: 0
c1ccc(CN(CC2=NCCN2)c2ccccc2)cc1 [antazoline phosphate]	inactive: 0
CC(=O)c1ccc(O)c(CC=C(C)C)c1 [3-prenyl-4-hydroxyacetophenone]	inactive: 0
CC(=O)OCC(=O)[C@H]1CC[C@H]2[C@@H]3CCC4=CC(=O)CC[C@]4(C)[C@H]3CC[C@]12C [desoxycorticosterone acetate]	inactive: 0
COc1ccc(-c2cc(=O)c3ccccc3o2)cc1OC [3',4'-dimethoxyflavone]	inactive: 0
COc1cc(O)ccc1C(C)=O [isopeonol]	inactive: 0
CC1(C)[C@@H](OC(=O)CCC(=O)O)CC[C@]2(C)[C@H]3C(=O)C=C4[C@@H]5C[C@@](C)(C(=O)O)CC[C@]5(C)CC[C@@]4(C)[C@]3(C)CC[C@@H]12 [carbenoxolone sodium]	inactive: 0
CC(CN(C)C)CN1c2ccccc2Sc2ccccc21 (stereo not drawn) [trimeprazine tartrate]	inactive: 0
Cc1cc(=O)c2c(o1)-c1c(cc(O)c(O)c1C(=O)O)OC2 [citromycetin]	inactive: 0

SMILES	phenotypic hit
N=C(N)NCCN1CCCCCCC1 [guanethidine sulfate]	inactive: 0
CC12CCC3c4ccc(OCc5ccccc5)cc4CCC3C1C[C@@H](O)[C@@H]2O (stereo partly drawn) [estriol benzyl ether]	inactive: 0
O=C(/C=C/c1ccc(O)c(O)c1)O[C@@H]1C[C@](O)(C(=O)O)C[C@@H](O)[C@H]1O [chlorogenic acid]	inactive: 0
CC[C@@H](CO)NCCN[C@@H](CC)CO [ethambutol hydrochloride]	inactive: 0
CC1(C)Oc2ccc3ccc(=O)oc3c2CC1O (stereo not drawn) [lomatin]	inactive: 0
Nc1ccccc1C(=O)CC(N)C(=O)O (stereo not drawn) [kynurenine]	inactive: 0
CCCCC/C=C\C/C=C\C/C=C\C/C=C\CCCC(=O)O [arachidonic acid]	inactive: 0
COc1cc(NC(C)CCCN)c2ncccc2c1 (stereo not drawn) [primaquine diphosphate]	inactive: 0
CCCCC1(COC(=O)CCC(=O)O)C(=O)N(c2ccccc2)N(c2ccccc2)C1=O [suxibuzone]	inactive: 0
COC(=O)[C@@H]1OC(=O)[C@H]2O[C@@]23[C@@]1(C)CCC1[C@@]2(C)CCC(=O)C(C)(C)C2C[C@@H](OC(C)=O)[C@]13C (stereo partly drawn) [dihydrogeduninic acid, methyl ester]	inactive: 0
CSc1ccc2c(c1)N(CCC1CCCCN1C)c1ccccc1S2 (stereo not drawn) [Thioridazine hydrochloride]	inactive: 0
CC1=C(/C=C/C(C)=C/C=C/C(C)=C\C(=O)O)C(C)(C)CCC1 [isotretinon]	inactive: 0
CC/C(=C(/CC)c1ccc(O)cc1)c1ccc(O)cc1 [diethylstilbestrol]	inactive: 0
Cc1cc(-c2ccccc2)nnc1NCCN1CCOCC1 [minaprine hydrochloride]	inactive: 0
COc1ccc(-c2cc(=O)c3c(OC(C)=O)cc(OC(C)=O)cc3o2)cc1 [acacetin diacetate]	active: 1
NC(N)=Nc1nc(CSCC/C(N)=N/S(N)(=O)=O)cs1 [famotidine]	inactive: 0
COC1(C)CCC2OC2(C)CCC2C1CC2(C)C (stereo not drawn) [2-methoxy-5 (6)epoxy-tetrahydrocaryophyllene]	inactive: 0
CN(C)[C@@H]1C(O)=C(C(N)=O)C(=O)[C@@]2(O)C(O)=C3C(=O)c4c(O)cccc4[C@@](C)(O)[C@H]3[C@H](O)[C@@H]12 [oxytetracycline]	inactive: 0
CN(C)c1ccc(O)c2c1C[C@H]1C[C@H]3[C@H](N(C)C)C(O)=C(C(N)=O)C(=O)[C@@]3(O)C(O)=C1C2=O [minocycline hydrochloride]	inactive: 0
Cc1ccsc1/C=C/C1=NCCCN1C [morantel citrate]	inactive: 0
O=C(O)CCCC[C@@H]1CCSS1 (racemic) [thioctic acid]	inactive: 0
O=C(COc1ccc(Cl)cc1)N1CCN(Cc2ccc3c(c2)OCO3)CC1 [fipexide hydrochloride]	inactive: 0
CN(Cc1cnc2nc(N)nc(N)c2n1)c1ccc(C(=O)N[C@@H](CCC(=O)O)C(=O)O)cc1 [methotrexate]	inactive: 0
O=c1c(O)cc([C@H]2Oc3cc(O)cc(O)c3C[C@H]2O)cc2c([C@H]3Oc4cc(O)cc(O)c4C[C@H]3O)cc(O)c(O)c12 [theaflavin]	inactive: 0
CCN(CC)CCNc1ccc(CO)c2sc3ccccc3c(=O)c12 [hycanthone]	active: 1

SMILES	phenotypic hit
CC(C)(C)CC(C)(C)c1ccc(O)c(Cc2ccc(Cl)cc2Cl)c1 [clofoctol]	active: 1
CCN(CC)CCOC(=O)C(c1ccccc1)c1ccccc1 [adiphenine hydrochloride]	inactive: 0
CCOC(=O)c1ccc(N)cc1 [benzocaine]	inactive: 0
CC(C)CCCC(C)C1CCC2C3=CCC4CC(O)CCC4(C)C3CCC21C (stereo not drawn) [lathosterol]	inactive: 0
Cc1ccc(S(=O)(=O)NC(=O)NN2CCCCCC2)cc1 [Tolazamide]	inactive: 0
COc1cccc(OC)c1C(=O)N[C@@H]1C(=O)N2[C@@H]1SC(C)(C)[C@@H]2C(=O)O [methicillin sodium]	inactive: 0
CO[C@H]1C[C@H](O[C@H]2[C@H](C)[C@@H](O[C@@H]3O[C@H](C)C[C@H](N(C)C)[C@H]3O)[C@@H](C)C[C@@]3(CO3)C(=O)[C@H](C)[C@@H](O)[C@@H](C)[C@@H](C)OC(=O)[C@@H]2C)O[C@@H](C)[C@@H]1O [oleandomycin phosphate]	inactive: 0
Nc1ccc(S(=O)(=O)Nc2ccccn2)cc1 [sulfapyridine]	inactive: 0
O=C(O)[C@H](O)[C@@](O)(Cc1ccc(O)cc1)C(=O)O [piscidic acid]	inactive: 0
CC1(C)[C@H]2CC[C@]1(C)C(=O)C2 [1s-camphor]	inactive: 0
Nc1ccn([C@@H]2O[C@H](CO)[C@@H](O)[C@@H]2O)c(=O)n1 [cytarabine]	inactive: 0
CC(=O)N[C@@H](C=O)[C@@H](O)[C@H](O)[C@H](O)CO [acetylglucosamine]	inactive: 0
CC(C)Cn1c(=O)n(C)c(=O)c2[nH]cnc21 [3-Isobutyl-1-methylxanthine]	inactive: 0
O=c1[nH]cnc2c1ncn2[C@@H]1O[C@H](CO)[C@@H](O)[C@H]1O [inosine]	inactive: 0
COc1cc([C@@H]2c3cc4c(cc3[C@@H](O[C@@H]3O[C@@H]5CO[C@@H](c6cccs6)O[C@H]5[C@H](O)[C@H]3O)[C@H]3COC(=O)[C@H]23)OCO4)cc(OC)c1O [teniposide]	inactive: 0
CC1(C)C=Cc2cc3ccc(=O)oc3cc2O1 [xanthyletin]	inactive: 0
O=c1ccc2ccccc2o1 [coumarin]	inactive: 0
CN(C)CCCN1c2ccccc2Sc2ccc(Cl)cc21 [Chlorpromazine hydrochloride]	active: 1
CCOC(=O)c1c(C)cc(O)cc1O [orsellinic acid, ethyl ester]	inactive: 0
O=c1ccn([C@@H]2O[C@H](COP(=O)(O)OP(=O)(O)OP(=O)(O)O)[C@@H](O)[C@H]2O)c(=O)[nH]1 [uridine triphosphate trisodium]	inactive: 0
COc1cc(O)c2c(=O)cc(-c3ccc(O)cc3)oc2c1 [genkwanin]	inactive: 0
CC(=O)[C@H]1CC[C@H]2[C@@H]3CC=C4C[C@@H](O)CC[C@]4(C)[C@H]3CC[C@]12C [pregnenolone]	inactive: 0
CN(C)c1ccc(C(=C2C=CC(=[N+](C)C)C=C2)c2ccc(N(C)C)cc2)cc1 [gentian violet]	inactive: 0

From the supplement of paper PMC2702839
